# Results: publication PMC4336329 (PLoS ONE, 2015)
# About 2,200 (0.71%) of roughly 310,000 compounds showed an effect of 50% or more. Effects have a minus sign here. The list shows a part of the results.
# Target: human ether-à-go-go-related gene (hERG) potassium channel (human, UniProt Q12809)
# Test: primary screen, population patch clamp on CHO cells stably expressing hERG
# human ether-à-go-go-related gene (hERG) potassium channel, sequence (Q12809 whole entry, looked up): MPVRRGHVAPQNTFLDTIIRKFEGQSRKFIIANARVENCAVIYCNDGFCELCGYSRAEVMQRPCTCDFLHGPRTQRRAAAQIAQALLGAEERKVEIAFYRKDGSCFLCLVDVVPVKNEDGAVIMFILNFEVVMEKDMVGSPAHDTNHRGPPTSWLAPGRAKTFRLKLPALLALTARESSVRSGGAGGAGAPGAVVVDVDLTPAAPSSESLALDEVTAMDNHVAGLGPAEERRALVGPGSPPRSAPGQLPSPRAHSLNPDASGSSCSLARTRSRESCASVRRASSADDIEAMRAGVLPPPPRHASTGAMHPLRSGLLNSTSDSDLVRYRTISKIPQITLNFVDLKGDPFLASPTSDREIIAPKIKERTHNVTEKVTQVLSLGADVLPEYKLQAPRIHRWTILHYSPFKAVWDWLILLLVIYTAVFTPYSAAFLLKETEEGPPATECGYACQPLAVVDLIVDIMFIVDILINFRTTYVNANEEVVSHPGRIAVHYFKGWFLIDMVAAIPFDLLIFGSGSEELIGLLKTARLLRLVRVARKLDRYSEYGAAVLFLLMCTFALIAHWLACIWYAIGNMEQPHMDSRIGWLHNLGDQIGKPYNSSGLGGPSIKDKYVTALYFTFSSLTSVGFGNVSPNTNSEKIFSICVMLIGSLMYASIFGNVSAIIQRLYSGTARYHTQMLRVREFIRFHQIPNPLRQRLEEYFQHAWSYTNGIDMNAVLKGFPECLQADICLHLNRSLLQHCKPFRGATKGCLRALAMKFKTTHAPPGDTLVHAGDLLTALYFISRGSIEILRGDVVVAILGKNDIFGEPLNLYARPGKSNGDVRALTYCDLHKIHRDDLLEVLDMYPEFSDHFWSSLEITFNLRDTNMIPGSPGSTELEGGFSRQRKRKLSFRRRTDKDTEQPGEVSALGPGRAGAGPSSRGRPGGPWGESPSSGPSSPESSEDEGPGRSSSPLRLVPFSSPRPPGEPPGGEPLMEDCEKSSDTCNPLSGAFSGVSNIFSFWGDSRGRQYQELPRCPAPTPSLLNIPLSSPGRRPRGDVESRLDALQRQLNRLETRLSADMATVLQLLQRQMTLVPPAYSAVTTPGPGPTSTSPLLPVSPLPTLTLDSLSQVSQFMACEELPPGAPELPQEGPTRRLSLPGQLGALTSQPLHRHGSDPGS
row,Structure (SMILES),"hERG current change (%, negative = inhibition) at 1uM"
1,N#Cc1nc(N2CCOCC2)nc(N2CCOCC2)n1,-12.7%
2,O=C(Nc1nnc(Cc2ccc(Cl)cc2)s1)c1cccs1,-9.63%
3,O=C(Nc1ccc(Cl)cc1)Nn1cnc2ccccc2c1=O,-0.139%
4,Cc1cc2nsnc2c(S(=O)(=O)NCC(=O)O)c1C,3.09%
5,COc1ccc2cc(C#N)c(Cl)nc2c1,20%
6,COc1ccc(-c2c(C)[nH]n3c(=O)c(Cc4ccccc4)c(C)nc23)cc1OC,14.4%
7,O=C(Nc1ccccc1)/C(=C/c1cccnc1)NC(=O)c1ccccc1,9.54%
8,COc1ccc(C(CC(=O)O)NC(=O)COc2ccccc2)cc1 (centres unmarked),13.4%
9,CC(=O)N1CCN(CC(=O)Nc2ccccc2Sc2ccccc2)CC1,-29.8%
10,Cc1ccccc1CN(c1ccc(C(=O)N2CCN(C)CC2)cc1)S(C)(=O)=O,11.4%
11,COc1cc(/C=N/NC(=O)Cc2ccccc2)cc(OC)c1OC,15.4%
12,O=C1OCCN1C(=O)[C@H]1[C@H](c2ccc(F)cc2)C(c2ccc(F)cc2)=NN1c1ccc(Br)cc1,11.6%
13,Cc1cccc(CN2CCN(Cc3ccc(Cl)cc3)CC2)c1.O=C(O)C(=O)O,1.15%
14,CCN1CCN(C(=O)C2CCCN(S(=O)(=O)c3cccc4nsnc34)C2)CC1 (centres unmarked),6.38%
15,Cc1ccc(C(=O)Nc2cccc(C(=O)NC3CCCC3)c2)cc1,12%
16,Nc1nnnn1/N=C/C(Br)=C/c1ccccc1,-11%
17,NC(=O)c1cccnc1Nc1cccc(F)c1,3.97%
18,CC(C)CSc1nnc(N)s1,1.88%
19,CCOC(=O)C1=CN(C)C=C(C(=O)OCC)C1c1ccsc1,-19.8%
20,C=CCNc1nc(S(=O)Cc2ccc(C)cc2)nc2c1CCCC2 (centres unmarked),15.8%

row,Structure (SMILES),"hERG current change (%, negative = inhibition) at 1uM"
1,COCCNC(=O)CCCn1c(=O)c2cc(OC)c(OC)cc2n(CC(=O)c2cccc(OC)c2)c1=O,9.69%
2,CC1Sc2ccc(S(=O)(=O)CCC(=O)N3CCN(c4ccccc4)CC3)cc2NC1=O (centres unmarked),15.5%
3,CCOC(=O)c1c(C)c(C(=O)N2CCCCCC2)c(C)n1CC,12.7%
4,CC1(C)CC(=O)C(C=NCCc2ccccn2)=C(O)C1,7%
5,CCCCCn1c(=O)[nH]c2cc(C(=O)NCCN(CC)CC)ccc2c1=O,8.67%
6,Cc1csc(NC(=O)C(Cc2ccccc2)n2cccc2)n1 (centres unmarked),12.9%
7,Cc1c(C(=O)NCC2CCCO2)oc2ccc(Br)cc12 (centres unmarked),11.3%
8,O=C(CSc1cccc[n+]1[O-])CSc1cccc[n+]1[O-],12.5%
9,Cc1cccc2c3nc4ccccc4nc3n(C)c12,7.81%
10,CCOc1ccc(-c2nnc(NC(=O)C3CCCC3)o2)cc1,13.9%
11,COc1cc(NC(=O)Nc2cccc(C(C)=O)c2)cc(OC)c1OC,5.91%
12,O=C(O)CSc1nnnn1-c1ccc2c(c1)OCCO2,-2.99%
13,O=C(Cc1ccc(S(=O)(=O)N2CCOCC2)s1)NCCc1ccc(F)cc1,5.48%
14,C=C(C)Cn1c(C)cc(C)c(S(=O)(=O)c2cccc(C)c2)c1=O,-7.18%
15,O=C(COc1ccc(Cl)cc1)NC1=NN(c2ccccc2)C(=O)C1,9.82%
16,CC(C)C(=O)Nc1cccc(NC(=O)CCN2C(=O)c3ccccc3S2(=O)=O)c1,10.1%
17,CC(=O)c1ccc(S(=O)(=O)N(C)CC(=O)Nc2ccc(C)cc2)cc1,6.83%
18,O=C(NCc1ccco1)C(c1ccc(F)cc1)N(CC1CCCO1)C(=O)Cn1nnc2ccccc21 (centres unmarked),9.18%
19,N[C@@H](Cc1c[nH]c2ccc(O)cc12)C(=O)O,15.6%
20,CC(C)N1C(=O)C(=O)N(CC(=O)N(C)c2ccccc2)C1=O,10.8%

row,Structure (SMILES),"hERG current change (%, negative = inhibition) at 1uM"
1,Cc1ccccc1C(=O)N1CCC(C(=O)Nc2nc3ccc(F)cc3s2)CC1,1.13%
2,Nc1cc(Cl)ccc1C(=O)OCC(=O)NC1CCCCC1,-4.47%
3,CCOC(=O)c1[nH]c2ccccc2c1CCCN1C(=O)c2ccccc2C1=O,10.2%
4,O=C(Cn1cnc([N+](=O)[O-])n1)N/N=C/c1cccc(Cl)c1,1.97%
5,CCOC(=O)c1c(C)n(C)c2ccc(OCC(O)CN3CCC(C)CC3)cc12.Cl (centres unmarked),-1.19%
6,CC(C)C(=O)Nc1cccnc1,17.7%
7,Cc1c(C(=O)NN)sc(-c2ccccc2)c1C#N,10.4%
8,Cc1nnc(NC(=O)CSc2nnc(Cc3cccn3C)n2C)s1,10.4%
9,O=C(Cc1c(C(=O)O)[nH]c2ccccc12)NCCN1CCN(c2cccc(Cl)c2)CC1,13.4%
10,O=C(c1ccncc1)N1CCN(c2cccc(C(F)(F)F)c2)CC1,-7.14%
11,Cc1ccccc1C(=O)NC1CCN(Cc2nnnn2Cc2ccccc2)CC1,-0.247%
12,Cc1ccc(Nc2nc(C)cc(C)c2C(N)=O)c(C)c1,13.8%
13,O=c1cc(CN2CC(O)Cc3ccc4ccccc4c32)nc2sccn12 (centres unmarked),0.461%
14,Cc1ccc(/C=N/N(C)C2=NS(=O)(=O)c3ccccc32)o1,16.5%
15,COc1ccccc1CNC(=O)C(C)NS(=O)(=O)c1ccc(C)cc1 (centres unmarked),9.28%
16,CCOC(=O)/C=C(\C)Sc1cc(=O)oc2ccccc12,10.2%
17,O=C(NCCN1CCOC1=O)C1CCC(=O)N(CCc2ccc(Cl)cc2)C1 (centres unmarked),0.606%
18,CCCNC(=O)c1ccc2c(c1)CCN2S(C)(=O)=O,4.7%
19,COc1ccc(C2CC(=O)C=C(NCCC(C)C)C2)cc1 (centres unmarked),-11.8%
